From the supplement of paper PMC8728848
The other results are listed elsewhere or left out.

Tests used:
Test in all cases: glycan array binding signal (z-score within array); higher = stronger binding
Settings in all cases: glycan notation: IUPAC condensed, linker removed
[1] = target: Gal(b1-4)GlcNAc(b1-3)Gal(b1-3)GalNAc
How it was run: (§1)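 Glycan array data were curated from 3228 arrays in the Consortium for Functional Glycomics database and kept only where the protein sequence was available. Glycan names were converted to IUPAC-condensed notation, and columns mapping to the same glycan were averaged. The binding signal is a within-array Z-score, averaged across arrays of the same protein sequence at different concentrations or buffers and across linkers. Negative Z-scores can be read as non-binding.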

[2] = target: Gal(b1-4)GlcNAc(b1-3)Gal(b1-3)GlcNAc
How it was run: as §1

[3] = target: Gal(b1-4)GlcNAc(b1-3)Gal(b1-4)Glc
How it was run: as §1

[4] = target: Gal(b1-4)GlcNAc(b1-3)Gal(b1-4)GlcNAc
How it was run: as §1

[5] = target: Gal(b1-4)GlcNAc(b1-3)Gal(b1-4)GlcNAc(b1-2)Man(a1-3)[Gal(b1-4)GlcNAc(b1-3)Gal(b1-4)GlcNAc(b1-2)Man(a1-6)]Man(b1-4)GlcNAc(b1-4)GlcNAc
How it was run: as §1

[6] = target: Gal(b1-4)GlcNAc(b1-3)Gal(b1-4)GlcNAc(b1-2)Man(a1-3)[Gal(b1-4)GlcNAc(b1-3)Gal(b1-4)GlcNAc(b1-2)Man(a1-6)]Man(b1-4)GlcNAc(b1-4)[Fuc(a1-6)]GlcNAc
How it was run: as §1

[7] = target: Gal(b1-4)GlcNAc(b1-3)Gal(b1-4)GlcNAc(b1-2)[Gal(b1-4)GlcNAc(b1-3)Gal(b1-4)GlcNAc(b1-6)]Man(a1-6)[Gal(b1-4)GlcNAc(b1-3)Gal(b1-4)GlcNAc(b1-2)Man(a1-3)]Man(b1-4)GlcNAc(b1-4)GlcNAc
How it was run: as §1

[8] = target: Gal(b1-4)GlcNAc(b1-3)Gal(b1-4)GlcNAc(b1-2)[Gal(b1-4)GlcNAc(b1-3)Gal(b1-4)GlcNAc(b1-6)]Man(a1-6)[Gal(b1-4)GlcNAc(b1-3)Gal(b1-4)GlcNAc(b1-2)Man(a1-3)]Man(b1-4)GlcNAc(b1-4)[Fuc(a1-6)]GlcNAc
How it was run: as §1

[9] = target: Gal(b1-4)GlcNAc(b1-3)Gal(b1-4)GlcNAc(b1-3)Gal(b1-4)GlcNAc
How it was run: as §1

[10] = target: Gal(b1-4)GlcNAc(b1-3)Gal(b1-4)GlcNAc(b1-3)Gal(b1-4)GlcNAc(b1-2)Man(a1-3)[Gal(b1-4)GlcNAc(b1-3)Gal(b1-4)GlcNAc(b1-3)Gal(b1-4)GlcNAc(b1-2)Man(a1-6)]Man(b1-4)GlcNAc(b1-4)GlcNAc
How it was run: as §1

[11] = target: Gal(b1-4)GlcNAc(b1-3)Gal(b1-4)GlcNAc(b1-3)Gal(b1-4)GlcNAc(b1-2)Man(a1-3)[Gal(b1-4)GlcNAc(b1-3)Gal(b1-4)GlcNAc(b1-3)Gal(b1-4)GlcNAc(b1-2)Man(a1-6)]Man(b1-4)GlcNAc(b1-4)[Fuc(a1-6)]GlcNAc
How it was run: as §1

[12] = target: Gal(b1-4)GlcNAc(b1-3)Gal(b1-4)GlcNAc(b1-3)Gal(b1-4)GlcNAc(b1-2)[Gal(b1-4)GlcNAc(b1-3)Gal(b1-4)GlcNAc(b1-3)Gal(b1-4)GlcNAc(b1-6)]Man(a1-6)[Gal(b1-4)GlcNAc(b1-3)Gal(b1-4)GlcNAc(b1-3)Gal(b1-4)GlcNAc(b1-2)Man(a1-3)]Man(b1-4)GlcNAc(b1-4)[Fuc(a1-6)]GlcNAc
How it was run: as §1

[13] = target: Gal(b1-4)GlcNAc(b1-3)Gal(b1-4)GlcNAc(b1-3)Gal(b1-4)GlcNAc(b1-3)Gal(b1-4)GlcNAc(b1-2)Man(a1-3)[Gal(b1-4)GlcNAc(b1-3)Gal(b1-4)GlcNAc(b1-3)Gal(b1-4)GlcNAc(b1-3)Gal(b1-4)GlcNAc(b1-2)Man(a1-6)]Man(b1-4)GlcNAc(b1-4)GlcNAc
How it was run: as §1

[14] = target: Gal(b1-4)GlcNAc(b1-3)Gal(b1-4)GlcNAc(b1-3)Gal(b1-4)GlcNAc(b1-3)Gal(b1-4)GlcNAc(b1-2)Man(a1-3)[Gal(b1-4)GlcNAc(b1-3)Gal(b1-4)GlcNAc(b1-3)Gal(b1-4)GlcNAc(b1-3)Gal(b1-4)GlcNAc(b1-2)Man(a1-6)]Man(b1-4)GlcNAc(b1-4)[Fuc(a1-6)]GlcNAc
How it was run: as §1

[15] = target: Gal(b1-4)GlcNAc(b1-3)Gal(b1-4)GlcNAc(b1-3)Gal(b1-4)GlcNAc(b1-3)Gal(b1-4)GlcNAc(b1-2)[Gal(b1-4)GlcNAc(b1-3)Gal(b1-4)GlcNAc(b1-3)Gal(b1-4)GlcNAc(b1-3)Gal(b1-4)GlcNAc(b1-6)]Man(a1-6)[Gal(b1-4)GlcNAc(b1-3)Gal(b1-4)GlcNAc(b1-3)Gal(b1-4)GlcNAc(b1-3)Gal(b1-4)GlcNAc(b1-2)Man(a1-3)]Man(b1-4)GlcNAc(b1-4)[Fuc(a1-6)]GlcNAc
How it was run: as §1

[16] = target: Gal(b1-4)GlcNAc(b1-3)Gal(b1-4)GlcNAc(b1-3)Gal(b1-4)GlcNAc(b1-3)Gal(b1-4)GlcNAc(b1-3)Gal(b1-4)GlcNAc(b1-2)Man(a1-3)[Gal(b1-4)GlcNAc(b1-3)Gal(b1-4)GlcNAc(b1-3)Gal(b1-4)GlcNAc(b1-3)Gal(b1-4)GlcNAc(b1-3)Gal(b1-4)GlcNAc(b1-2)Man(a1-6)]Man(b1-4)GlcNAc(b1-4)GlcNAc
How it was run: as §1

[17] = target: Gal(b1-4)GlcNAc(b1-3)Gal(b1-4)GlcNAc(b1-3)Gal(b1-4)GlcNAc(b1-3)Gal(b1-4)GlcNAc(b1-3)Gal(b1-4)GlcNAc(b1-2)Man(a1-3)[Gal(b1-4)GlcNAc(b1-3)Gal(b1-4)GlcNAc(b1-3)Gal(b1-4)GlcNAc(b1-3)Gal(b1-4)GlcNAc(b1-3)Gal(b1-4)GlcNAc(b1-2)Man(a1-6)]Man(b1-4)GlcNAc(b1-4)[Fuc(a1-6)]GlcNAc
How it was run: as §1

[18] = target: Gal(b1-4)GlcNAc(b1-3)Gal(b1-4)GlcNAc(b1-3)Gal(b1-4)GlcNAc(b1-3)Gal(b1-4)GlcNAc(b1-3)Gal(b1-4)GlcNAc(b1-2)[Gal(b1-4)GlcNAc(b1-3)Gal(b1-4)GlcNAc(b1-3)Gal(b1-4)GlcNAc(b1-3)Gal(b1-4)GlcNAc(b1-3)Gal(b1-4)GlcNAc(b1-6)]Man(a1-6)[Gal(b1-4)GlcNAc(b1-3)Gal(b1-4)GlcNAc(b1-3)Gal(b1-4)GlcNAc(b1-3)Gal(b1-4)GlcNAc(b1-3)Gal(b1-4)GlcNAc(b1-2)Man(a1-3)]Man(b1-4)GlcNAc(b1-4)[Fuc(a1-6)]GlcNAc
How it was run: as §1

[19] = target: Gal(b1-4)GlcNAc(b1-3)Gal(b1-4)GlcNAc(b1-3)Gal(b1-4)GlcNAc(b1-3)Gal(b1-4)GlcNAc(b1-3)Gal(b1-4)GlcNAc(b1-3)Gal(b1-4)GlcNAc(b1-2)Man(a1-3)[Gal(b1-4)GlcNAc(b1-3)Gal(b1-4)GlcNAc(b1-3)Gal(b1-4)GlcNAc(b1-3)Gal(b1-4)GlcNAc(b1-3)Gal(b1-4)GlcNAc(b1-3)Gal(b1-4)GlcNAc(b1-2)Man(a1-6)]Man(b1-4)GlcNAc(b1-4)GlcNAc
How it was run: as §1

[20] = target: Gal(b1-4)GlcNAc(b1-3)Gal(b1-4)GlcNAc(b1-3)GalNAc
How it was run: as §1

[21] = target: Gal(b1-4)GlcNAc(b1-3)Gal(b1-4)GlcNAc(b1-3)[Gal(b1-4)GlcNAc(b1-3)Gal(b1-4)GlcNAc(b1-6)]GalNAc
How it was run: as §1

[22] = target: Gal(b1-4)GlcNAc(b1-3)Gal(b1-4)GlcNAc(b1-6)[Gal(b1-3)]GalNAc
How it was run: as §1

B1: Gal 2 (Homo sapiens), P05162 (protein)
chain: MTGELEVKNMDMKPGSTLKITGSIADGTDGFVINLGQGTDKLNLHFNPRFSESTIVCNSLDGSNWGQEQREDHLCFSPGSEVKFTVTFESDKFKVKLPDGHELTFPNRLGHSHLSYLSVRGGFNMSSFKLKE
[1]
  glycan array binding signal (z-score): -0.268
[2]
  glycan array binding signal (z-score): -0.196
[3]
  glycan array binding signal (z-score): 0.142
[4]
  glycan array binding signal (z-score): 0.133
[5]
  glycan array binding signal (z-score): -0.04
[6]
  glycan array binding signal (z-score): -0.203
[7]
  glycan array binding signal (z-score): -0.042
[8]
  glycan array binding signal (z-score): -0.034
[9]
  glycan array binding signal (z-score): 0.097
[10]
  glycan array binding signal (z-score): -0.039
[11]
  glycan array binding signal (z-score): -0.075
[12]
  glycan array binding signal (z-score): -0.082
[13]
  glycan array binding signal (z-score): -0.177
[14]
  glycan array binding signal (z-score): 0.073
[15]
  glycan array binding signal (z-score): -0.172
[16]
  glycan array binding signal (z-score): -0.071
[17]
  glycan array binding signal (z-score): -0.248
[18]
  glycan array binding signal (z-score): 0.023
[19]
  glycan array binding signal (z-score): 0.056
[20]
  glycan array binding signal (z-score): -0.024
[21]
  glycan array binding signal (z-score): -0.215
[22]
  glycan array binding signal (z-score): -0.17
